In one test the target is T1, CD3-4-1BBL BsM_D.
T1 construct: disulfide-linked dimer; also called anti-CD3/4-1BBL bispecific molecule of dimeric form
Nature of the test: ELISA, antigen coated at 1 ug/ml, binder titrated from 10 ug/ml, OD450. On the technique in general: An ELISA detects its analyte on a solid surface through an enzyme-linked reagent.

For the next test, the target named is T2, CD3-4-1BBL BsM_M.
T2 construct: also called anti-CD3/4-1BBL bispecific molecule of monomeric form
Described as above.

B1: human 4-1BB-hFc recombinant protein (Fc fusion)
chain: not shown
notes: Purchased from Novoprotein; also called 4-1BB-hFc recombinant antigen; not shown: human Fc (hFc) of the purchased fusion
With B1, the binding result with CD3-4-1BBL BsM_D and with CD3-4-1BBL BsM_M was “binds” each time.

The record behind these values is patent US20230242876A1 (SHANGHAI SINOBIO BIOTECH, published 2023).
